Source: PubChem BioAssay AID624417 (National Center for Advancing Translational Sciences (NCATS), 2012)
“And” between values parts separate entries of the source, which are not always exact repeats. Identical values can stand only once. Screen size: about 410,000 compounds; about 6,400 (1.6%) were called active. The shares of active, inactive and inconclusive entries below differ from those in the screen. Calls come from the whole dose curve; as a rule, active = well fitted inhibition curve with a large enough effect; inconclusive = small, poorly fitted or top-dose-only effect; inactive = no such curve, though single readings can be large or run the other way. A potency beside an inconclusive call is a rough fit, not a confirmed value.

Each molecule was assayed against Glucagon-like peptide 1 receptor (Homo sapiens) (UniProt P43220) (assay: qHTS of GLP-1 Receptor Inverse Agonists (Inhibition Mode)). Details: HEK293 GLP-1R CRE-luciferase, luminescence, 24 h, GLP-1R form is constitutively active; activity change, negative = inhibition: at 38.3 µM (top of the series) unless noted.
Chain of UniProt P43220 (P43220 whole entry, looked up): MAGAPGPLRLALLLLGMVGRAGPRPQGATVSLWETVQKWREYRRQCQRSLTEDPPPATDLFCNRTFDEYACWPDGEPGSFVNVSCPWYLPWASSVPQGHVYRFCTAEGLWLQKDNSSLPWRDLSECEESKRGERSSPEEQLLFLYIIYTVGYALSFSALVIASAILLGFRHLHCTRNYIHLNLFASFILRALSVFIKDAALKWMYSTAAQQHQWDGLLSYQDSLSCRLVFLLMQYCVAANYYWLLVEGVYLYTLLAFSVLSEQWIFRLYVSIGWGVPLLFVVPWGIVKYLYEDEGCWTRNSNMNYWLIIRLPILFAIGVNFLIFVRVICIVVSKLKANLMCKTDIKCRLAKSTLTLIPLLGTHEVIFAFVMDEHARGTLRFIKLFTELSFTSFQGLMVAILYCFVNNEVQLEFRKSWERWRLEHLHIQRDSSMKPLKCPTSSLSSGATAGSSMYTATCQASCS
Method in brief: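 Inverse agonism was detected as reduced cAMP-driven luciferase luminescence after 24 h compound treatment. The cells were HEK293 clones expressing constitutively active human GLP-1R with the reporter. Reporter-only and GPR119 cell lines served as counterscreen controls.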
% is set by controls: 0 for no effect and ±100 for the full control effect; potency is the fitted concentration of half-maximal effect; tags give direction and shape of the fitted curve.
Note: nearly all actives have a fitted effect of over 55% in size.

Structure (SMILES) | Potency | activity change, negative = inhibition
O=S(=O)(NCC(c1cccs1)S(=O)(=O)c1ccccc1)c1ccc(F)c(C(F)(F)F)c1 (configuration not stated) | inconclusive: 10 µM [inhibitor, partial curve, poor fit] | 
COc1ccc(-c2[nH]c(-c3cccc(OC)c3)nc2SCC(=O)NC2CCCC2)cc1 | inconclusive: 12.6 µM [inhibitor, partial curve, poor fit] and inconclusive: 22.4 µM [inhibitor, single point] | 
Cc1ccc(C2=NC3(CCCC3)N=C2SCC(=O)Nc2ccc3c(c2)OCCO3)cc1 | inconclusive: 10 µM [inhibitor, partial curve, poor fit] | 
CCN(Cc1ccccc1)S(=O)(=O)c1cc(C(=O)Nc2cc(Cl)cc(Cl)c2)ccc1F | inconclusive: 7.94 µM [inhibitor, partial curve, poor fit] | 
COC(=O)c1c(C)oc(C)c1S(=O)(=O)NCc1ccco1 | inactive | 
CC(NC(=S)Nc1ccc(Cl)cc1Cl)C(c1cccs1)N1CCCC1 (configuration not stated) | inactive | 
O/N=C/c1cc(Br)ccc1OCc1ccccc1F | inconclusive: 28.2 µM [inhibitor, single point] | 
Cc1ccccc1CC(=O)NC1CCCc2ccccc21 (configuration not stated) | inconclusive: 14.1 µM [inhibitor, single point] | 
C=CCn1c(C)cc(C(=O)COC(=O)CCc2cc(OC)c(OC)c(OC)c2)c1C | inconclusive: 10 µM [inhibitor, single point] | 
O=C(c1cc(-c2cccs2)on1)N1CCCc2ccccc21 | inconclusive: 31.6 µM [inhibitor, single point] | 
O=c1c(Cl)c(NCc2ccccc2Cl)cnn1C12CC3CC(CC(C3)C1)C2 | inconclusive: 0.891 µM [inhibitor, full curve, poor fit] | 
O=C1/C(=C/c2ccc(F)cc2)SC(=S)N1CCCC(=O)N1CCCCC1CCO (configuration not stated) | inconclusive: 1.78 µM [inhibitor, full curve, poor fit] | 
CN1CCc2nc3sc(C(=O)C45CC6CC(CC(C6)C4)C5)c(N)c3cc2C1 | inconclusive: 5.62 µM [inhibitor, partial curve] | 
NC(c1csc(Nc2cc(Oc3ccccc3)ncn2)n1)C1CCCCC1 (configuration not stated) | inconclusive: 11.2 µM [inhibitor, single point] | 
CCN(CC)C(=O)C1CCN(S(=O)(=O)c2ccc3oc4ccccc4c3c2)CC1 | inconclusive: 28.2 µM [inhibitor, single point] | 
C#CCOC(=O)c1cc(Cl)c(=O)n(Cc2ccc(Cl)cc2Cl)c1 | inconclusive: 14.1 µM [inhibitor, single point] | 
CC(C)(C)NC(=O)Cn1nnc(-c2ccccc2Cl)n1 | inactive | 
CC(C)Oc1cccc(C(=O)C2CCCN(S(=O)(=O)C(C)C)C2)c1 (configuration not stated) | inconclusive: 28.2 µM [inhibitor, single point] | 
COC(=O)c1ccc(OCC2c3cc(OC)c(OC)cc3CCN2C(=O)Cc2ccccc2)cc1 (configuration not stated) | inactive | 
COc1ccc(C(N)CCc2ccco2)cc1 (configuration not stated) | inconclusive: 14.1 µM [inhibitor, partial curve, poor fit] | 
COc1ccccc1Oc1ccc(NC(=O)Cc2ccccc2)cc1 | inconclusive: 11.2 µM [inhibitor, single point] | 

Structure (SMILES) | Potency | activity change, negative = inhibition
Cc1ccc(S(=O)(=O)N2CCOCC2)cc1C(=O)Nc1nc(-c2ccccn2)cs1 | inconclusive: 8.91 µM [inhibitor, partial curve] | 
CN(CC(=O)NCc1ccccc1)S(=O)(=O)c1ccc2[nH]c3c(c2c1)CCCC3 | inconclusive: 15.8 µM [inhibitor, single point] | 
CC1CCCN(c2c([N+](=O)[O-])cc(C(=O)O)cc2[N+](=O)[O-])C1 (configuration not stated) | inconclusive: 5.01 µM [inhibitor, partial curve] | 
Cc1cccc(C(=O)NC(=S)NNC(=O)c2ccccc2Cl)c1 | inactive | 
Cc1cc(C)c(S(=O)(=O)Nc2ccc(-c3ccc(N4CCCCCC4)nn3)cc2)c(C)c1 | inconclusive: 7.94 µM [inhibitor, partial curve, poor fit] | 
O=C(Nc1ccncc1)c1cc(S(=O)(=O)N2CCCCC2)ccc1Cl | inconclusive: 10 µM [inhibitor, single point] | 
CCCc1cc(C(=O)Nc2c(C)nn(Cc3c(Cl)cccc3Cl)c2C)no1 | inconclusive: 4.47 µM [inhibitor, partial curve] | 
CCN(CC)C(=O)C1CCCN(c2ccc([N+](=O)[O-])cc2/C=N/NC(=O)c2ccccc2)C1 (configuration not stated) | inactive | 
O=C(NCCc1ccccc1F)c1ccc2c(c1)OCCO2 | active: 0.891 µM | 
CCCc1cnc(N2CCN(C(=O)c3ccc(OC)cc3)CC2)nc1 |  | inconclusive: -30.9% [inhibitor]
Cc1ccc2occ(/C=N/NC(=O)c3ccc(Cl)cc3)c(=O)c2c1 | inconclusive: 7.08 µM [inhibitor, partial curve, poor fit] | 
CCOC(=O)c1cc(-c2ccccc2)n(-c2cccc(C(=O)Nc3cc(OC)cc(OC)c3)c2)c1C | inconclusive: 1.58 µM [inhibitor, full curve, poor fit] | 
CC(C)N1C(=O)c2ccccc2N(Cc2ccccc2)S1(=O)=O | inconclusive: 3.55 µM [inhibitor, partial curve, poor fit] | 
O=C1NC2c3c(I)sc(I)c3C(=O)C2O1 (configuration not stated) | inconclusive: 22.4 µM [inhibitor, single point] | 
CC(=O)Oc1ccc(C23c4ccccc4C2(OC(C)=O)c2cc(OC(C)=O)ccc23)cc1 (configuration not stated) | inconclusive: 12.6 µM [inhibitor, partial curve, poor fit] | 
CC(=O)Nc1ccc(CN(C)c2c(C)nc3ccc(C(=O)Nc4ccc(Cl)c(Cl)c4)cn23)cc1 | inconclusive: 28.2 µM [inhibitor, single point] | 
C[C@H](c1ccccc1)N1C[C@H](COCc2ccccc2)Oc2cc(N3CC[C@H](N(C)C)C3)ccc2S1(=O)=O | inconclusive: 14.1 µM [inhibitor, single point] | 
COc1cccc(CNC(=O)CN(c2ccc(C(C)C)cc2)S(=O)(=O)c2c(C)noc2C)c1 | inactive | 
Brc1cc2c(cc1CN1CCc3ccccc3C1)OCO2 | inconclusive: 12.6 µM [inhibitor, single point] | 
CC1(C)Cc2c(sc3nc(C4CCCCC4)n(N)c(=O)c23)CO1 |  | inconclusive: -34.6% [inhibitor]
CC(C)(C)NC(=O)COC(=O)c1ccc(Cl)cc1O | inconclusive: 7.08 µM [inhibitor, partial curve, poor fit] | 

Structure (SMILES) | Potency | activity change, negative = inhibition
Cc1ccc(NC(=O)Cn2cccc2C2=NC(c3ccccc3)CO2)c(C)c1 (configuration not stated) | inconclusive: 11.2 µM [inhibitor, partial curve, poor fit] | 
CCOc1ccc(CCNC(=O)CCSCc2ccc(Cl)cc2)cc1OCC | inconclusive: 10 µM [inhibitor, single point] | 
Cn1c(=O)c2c(nc(CN3CCc4ccccc4C3)n2Cc2ccccc2)n(C)c1=O | inconclusive: 28.2 µM [inhibitor, single point] | 
Cc1cccc(Cc2c(C)nc3nc(SCC(=O)NCc4ccccc4)nn3c2C)c1 | inconclusive: 10 µM [inhibitor, single point] | 
CSCC[C@H](NC(=O)OC(C)(C)C)c1nnc(SCc2ccccc2)o1 | inconclusive: 11.2 µM [inhibitor, partial curve, poor fit] | 
CCc1ccc2oc(-c3cc(NC(=O)c4cccnc4)cc(C)c3O)nc2c1 | inactive | 
CCN(c1ccccc1)S(=O)(=O)c1cccc(C(=O)Nc2cccc(C)n2)c1 | inconclusive: 14.1 µM [inhibitor, single point] | 
Cc1ccc(C(=O)Nc2nnc(S(=O)(=O)N3CCc4ccccc43)s2)cc1 | inactive | 
Cc1cccc(C)c1N1CCN(CCn2c(=S)[nH]c3ccccc3c2=O)CC1 | inactive | 
Cc1c(C#N)c2ncn(CCCN(C)C)c(=O)c2n1-c1ccccc1 | inconclusive: 0.501 µM [inhibitor, full curve, poor fit] | 
COc1ccc(-c2[nH]ncc2CN(C)C(C)c2cccs2)c(F)c1 (configuration not stated) | inconclusive: 10 µM [inhibitor, single point] | 
CCn1c2ccccc2c2cc(NC(=O)CN3CCCC3)ccc21 | inconclusive: 12.6 µM [inhibitor, partial curve, poor fit] | 
O=C(c1ccc(-c2cc(Cl)ccc2Cl)o1)N1CCOCC1 | inactive | 
NC(CSC(c1ccccc1)(c1ccccc1)c1ccc(-c2ccccc2)cc1)C(=O)O (configuration not stated) | inconclusive: 12.6 µM [inhibitor, single point] | 
Cc1ccc(C)c(N2CCN(C(=O)CCCn3c(=O)c4cccn4c4cccnc43)CC2)c1 | inconclusive: 10 µM [inhibitor, partial curve, poor fit] | 
CC(C)(C)NC(=O)C(c1ccncc1)N(Cc1ccc(F)cc1)C(=O)c1ccc(-c2ccccc2)[nH]1 (configuration not stated) | inconclusive: 4.47 µM [inhibitor, partial curve, poor fit] | 
Cc1ccc(NC(=S)NC(=O)c2ccc(F)cc2)cc1S(=O)(=O)Nc1ccccc1Cl | inconclusive: 10 µM [inhibitor, partial curve, poor fit] | 
OCCN1CCN(C2CCC(c3ccc(F)cc3)c3ccc(F)cc32)CC1 (configuration not stated) | active: 2 µM | 
Cc1ccc2cccc(OCCCOc3ccccc3CO)c2n1 | inconclusive: 31.6 µM [inhibitor, partial curve, poor fit] | 
CCc1ccc(S(=O)(=O)c2nnn3c2nc(Nc2ccc(F)cc2)c2cc(Cl)ccc23)cc1 | inactive | 
